Reference: a collection of fitness landscapes (doi:10.1038/s41467-024-54723-y)
In all, about 18,000 sequences were measured (“TetR repression strength (sort-seq, GFP reporter)”: median about 0.23, highest 2% from about 0.68 on). Some of the results follow.

What follows are sequences tested against TetR (class B, Tn10) (UniProt P04483) (assay: TetR repression strength (sort-seq, GFP reporter) (relative to tetO2 = 1); higher = stronger repression). Settings: E. coli.
Sequence of UniProt P04483 (P04483 whole entry): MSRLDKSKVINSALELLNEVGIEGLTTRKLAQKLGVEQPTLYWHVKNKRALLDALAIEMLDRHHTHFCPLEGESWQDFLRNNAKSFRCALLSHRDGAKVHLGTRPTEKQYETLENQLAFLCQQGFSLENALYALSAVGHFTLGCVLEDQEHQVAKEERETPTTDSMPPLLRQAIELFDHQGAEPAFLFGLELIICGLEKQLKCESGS
Summary of the method: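 In LB with 50 µg/mL chloramphenicol, E. coli SIG10-MAX holding a low-copy library with eight randomized operator positions between a constitutive promoter and sfGFP, plus constitutive TetR, grew for 5 h at 37 °C. FACS then sorted 10^6 cells into 13 fluorescence bins for Illumina sequencing of each bin. Repression strength equals the top bin index plus one less the read-weighted mean bin, normalized to the unaltered operator. Values from three independent transformations were averaged when reads were ≥30 in every replicate and the CV was ≤0.5.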
Work on TCCCTGACAGTTGGCGAGA yielded a TetR repression strength of 0.301.
Work on TCCCATGCAGTACACGAGA yielded a TetR repression strength of 0.222.
TCCCTCCTAGTCCGCGAGA was tested, and the TetR repression strength was 0.574.
TCCCGTCCAGTCGGGGAGA gave a TetR repression strength of 0.38.
TCCCAGGAAGTCCCGGAGA gave a TetR repression strength of 0.2.
In the case of TCCCCTCAAGTGTCGGAGA, the TetR repression strength is reported as 0.258.
Work on TCCCCGACAGTTGGGGAGA yielded a TetR repression strength of 0.201.
TCCCGCTCAGTTGCAGAGA gave a TetR repression strength of 0.165.
TCCCAGTTAGTGATTGAGA gave a TetR repression strength of 0.173.
TCCCGATGAGTTGCTGAGA was tested, and the TetR repression strength was 0.124.
TCCCAGTGAGTGTCAGAGA was tested, and the TetR repression strength was 0.232.
For TCCCGCTAAGTGAAGGAGA, the TetR repression strength was 0.207.
With TCCCAACAAGTCAGTGAGA the TetR repression strength was 0.274.
TCCCGGGGAGTAGCTGAGA was tested, and the TetR repression strength was 0.709.
TCCCGCAAAGTGGTGGAGA was tested, and the TetR repression strength was 0.0518.
In the case of TCCCTATTAGTCTACGAGA, the TetR repression strength is reported as 0.327.
TCCCACCGAGTGTCGGAGA was tested, and the TetR repression strength was 0.13.
For TCCCGTAAAGTTACAGAGA, the TetR repression strength was 0.232.
For TCCCTGTTAGTATTGGAGA, the TetR repression strength was 0.179.
TCCCAATGAGTGTGAGAGA showed a TetR repression strength of 0.213.
TCCCGCCAAGTAGAGGAGA showed a TetR repression strength of 0.279.
For TCCCTTCTAGTGAGTGAGA, the TetR repression strength was 0.246.
Work on TCCCATTTAGTATTCGAGA yielded a TetR repression strength of 0.215.
TCCCGAGAAGTCAAGGAGA was tested, and the TetR repression strength was 0.509.
TCCCCGAAAGTCGTCGAGA showed a TetR repression strength of 0.317.
In the case of TCCCGGGGAGTTTTAGAGA, the TetR repression strength is reported as 0.547.
TCCCCTAAAGTGGGCGAGA gave a TetR repression strength of 0.563.
Sequence TCCCTATGAGTTTAAGAGA has a TetR repression strength of 1.03.
TCCCTGAGAGTACGTGAGA showed a TetR repression strength of 0.304.
In the case of TCCCGTGTAGTCCGGGAGA, the TetR repression strength is reported as 0.18.
TCCCAATGAGTGCCCGAGA gave a TetR repression strength of 0.285.
For TCCCGAATAGTCACAGAGA, the TetR repression strength was 0.4.
In the case of TCCCAAGAAGTAGAAGAGA, the TetR repression strength is reported as 0.257.
Sequence TCCCTCTCAGTGATAGAGA has a TetR repression strength of 0.866.
Sequence TCCCTCAGAGTTGGTGAGA has a TetR repression strength of 1.2.
TCCCTTTCAGTGGTTGAGA gave a TetR repression strength of 0.32.
In the case of TCCCACGGAGTTTTAGAGA, the TetR repression strength is reported as 0.34.
TCCCTCGTAGTCACGGAGA gave a TetR repression strength of 0.411.
Work on TCCCCCTCAGTGTGCGAGA yielded a TetR repression strength of 0.303.
Sequence TCCCTTGCAGTACCTGAGA has a TetR repression strength of 0.0207.
For TCCCCCACAGTCATGGAGA, the TetR repression strength was 0.201.
Sequence TCCCACTTAGTGGCAGAGA has a TetR repression strength of 0.171.
In the case of TCCCTCCAAGTGGTGGAGA, the TetR repression strength is reported as 0.235.
For TCCCATTAAGTATATGAGA, the TetR repression strength was 0.278.
TCCCCACCAGTTAAAGAGA gave a TetR repression strength of 0.311.
TCCCGGGTAGTGGGAGAGA was tested, and the TetR repression strength was 0.174.
TCCCTGGGAGTAACGGAGA was tested, and the TetR repression strength was 0.283.
For TCCCTTCAAGTGTTTGAGA, the TetR repression strength was 0.308.
TCCCGTTTAGTGAGTGAGA showed a TetR repression strength of 0.23.
TCCCGACCAGTGCACGAGA gave a TetR repression strength of 0.42.
Sequence TCCCGGGTAGTCTGCGAGA has a TetR repression strength of 0.185.
For TCCCGCTGAGTATTAGAGA, the TetR repression strength was 0.352.
TCCCATCCAGTAGGTGAGA was tested, and the TetR repression strength was 0.165.
For TCCCAAGGAGTTTTGGAGA, the TetR repression strength was 0.26.
TCCCGGTTAGTTGCTGAGA showed a TetR repression strength of 0.224.
TCCCCTTCAGTGTCCGAGA was tested, and the TetR repression strength was 0.395.
For TCCCACATAGTAGAGGAGA, the TetR repression strength was 0.163.
With TCCCGGGTAGTGGCTGAGA the TetR repression strength was 0.404.
TCCCCATGAGTACTAGAGA was tested, and the TetR repression strength was 0.424.
For TCCCTGGTAGTTCGGGAGA, the TetR repression strength was 0.0446.
TCCCTTTAAGTATTAGAGA gave a TetR repression strength of 0.0716.
For TCCCTGATAGTCGTGGAGA, the TetR repression strength was 0.346.
Sequence TCCCGCGGAGTAGTAGAGA has a TetR repression strength of 0.279.
In the case of TCCCGAGAAGTGTGCGAGA, the TetR repression strength is reported as 0.184.
TCCCCTCGAGTTGCCGAGA gave a TetR repression strength of 0.361.
Work on TCCCTATCAGTGACGGAGA yielded a TetR repression strength of 0.472.
TCCCCTACAGTTTTGGAGA was tested, and the TetR repression strength was 0.0179.
TCCCATCAAGTTTGGGAGA gave a TetR repression strength of 0.16.
TCCCACAAAGTATAGGAGA gave a TetR repression strength of 0.307.
Work on TCCCGGTTAGTGGGGGAGA yielded a TetR repression strength of 0.196.
TCCCGCGTAGTCTGCGAGA gave a TetR repression strength of 0.305.
TCCCGTGAAGTGAAGGAGA was tested, and the TetR repression strength was 0.211.
TCCCCACAAGTAGGTGAGA gave a TetR repression strength of 0.214.
Sequence TCCCGTCAAGTCACTGAGA has a TetR repression strength of 0.176.
With TCCCTAAAAGTGTAAGAGA the TetR repression strength was 0.447.
For TCCCGTCAAGTAATTGAGA, the TetR repression strength was 0.387.
Work on TCCCGTCGAGTTAATGAGA yielded a TetR repression strength of 0.641.
Work on TCCCTGGCAGTTCGAGAGA yielded a TetR repression strength of 0.344.
TCCCGGTCAGTGCTCGAGA gave a TetR repression strength of 0.438.
TCCCACAGAGTAGGTGAGA showed a TetR repression strength of 0.0401.
TCCCTTAGAGTCCCCGAGA was tested, and the TetR repression strength was 0.295.
In the case of TCCCAGGAAGTCGGAGAGA, the TetR repression strength is reported as 0.274.
For TCCCCCTTAGTGCTGGAGA, the TetR repression strength was 0.422.
TCCCGCGTAGTCCTCGAGA was tested, and the TetR repression strength was 0.294.
Work on TCCCGACTAGTGAGTGAGA yielded a TetR repression strength of 0.677.
With TCCCCACTAGTGAAGGAGA the TetR repression strength was 0.203.
Sequence TCCCGGGTAGTGCTTGAGA has a TetR repression strength of 0.253.
TCCCGGTAAGTACCTGAGA gave a TetR repression strength of 0.0225.
TCCCCTCCAGTGGGTGAGA gave a TetR repression strength of 0.225.
For TCCCAAAAAGTAGCAGAGA, the TetR repression strength was 0.273.
With TCCCGGCAAGTCCTGGAGA the TetR repression strength was 0.284.
With TCCCTCATAGTGCCAGAGA the TetR repression strength was 0.504.
TCCCATTAAGTACCGGAGA gave a TetR repression strength of 0.104.
Work on TCCCACAAAGTCTGTGAGA yielded a TetR repression strength of 0.513.
In the case of TCCCATTTAGTTGGAGAGA, the TetR repression strength is reported as 0.352.
TCCCACTGAGTGGATGAGA showed a TetR repression strength of 0.143.
TCCCCTACAGTTAGAGAGA showed a TetR repression strength of 0.521.
TCCCTCGAAGTTGTTGAGA showed a TetR repression strength of 0.36.
TCCCCTGAAGTTGTGGAGA gave a TetR repression strength of 0.0108.
For TCCCTCGCAGTGACTGAGA, the TetR repression strength was 0.3.
For TCCCGATGAGTCCAGGAGA, the TetR repression strength was 0.209.
Work on TCCCTCTCAGTGTAGGAGA yielded a TetR repression strength of 0.507.
